# Assay results from the supplement of paper PMC8728848.
# The list shows a part of the results.
# B1: P-Selectin (Homo sapiens), P16109 (protein)
# chain: MANCQIAILYQRFQRVVFGISQLLCFSALISELTNQKEVAAWTYHYSTKAYSWNISRKYCQNRYTDLVAIQNKNEIDYLNKVLPYYSSYYWIGIRKNNKTWTWVGTKKALTNEAENWADNEPNNKRNNEDCVEIYIKSPSAPGKWNDEHCLKKKHALCYTASCQDMSCSKQGECLETIGNYTCSCYPGFYGPECEYVRECGELELPQHVLMNCSHPLGNFSFNSQCSFHCTDGYQVNGPSKLECLASGIWTNKPPQCLAAQCPPLKIPERGNMTCLHSAKAFQHQSSCSFSCEEGFALVGPEVVQCTASGVWTAPAPVCKAVQCQHLEAPSEGTMDCVHPLTAFAYGSSCKFECQPGYRVRGLDMLRCIDSGHWSAPLPTCEAISCEPLESPVHGSMDCSPSLRAFQYDTNCSFRCAEGFMLRGADIVRCDNLGQWTAPAPVCQALQCQDLPVPNEARVNCSHPFGAFRYQSVCSFTCNEGLLLVGASVLQCLATGNWNSVPPECQAIPCTPLLSPQNGTMTCVQPLGSSSYKSTCQFICDEGYSLSGPERLDCTRSGRWTDSPPMCEAIKCPELFAPEQGSLDCSDTRGEFNVGSTCHFSCDNGFKLEGPNNVECTTSGRWSATPPTCKGIASLPTPGLQCPALTTPGQGTMYCRHHPGTFGFNTTCYFGCNAGFTLIGDSTLSCRPSGQWTAVTPACRAVKCSELHVNKPIAMNCSNLWGNFSYGSICSFHCLEGQLLNGSAQTACQENGHWSTTVPTCQAGPLTIQEASTSITAYKSEGESAEFSFPLNLGEESLQGELRWKAEKAPSSQSWITFSLKNQKVSVQKSTSNPKFQLSETLPLTLQIPQVSLQFAGSGNLTLTLDRGILYQEVNLVVMKVTQPDSNTLTCEVMGPTSPKMRLILKQENQEARVSRQEKVIQVQAPEAGVWQCLLSEGEEVKMDSKIQVLSKGLNSGGGSGGGTGGGDLAPQMLRELQETNAALQDVRELLRQQVKEITFLKNTVMECDACGLDRNLPPLAPLGPHPETLVKVKDAEDQLGARVGYIELDLNSGKILESFRPEERFPMMSTFKVLLCGAVLSRIDAGQEQLGRRIHYSQNDLVEYSPVTEKHLTDGMTVRELCSAAITMSDNTAANLLLTTIGGPKELTAFLHNMGDHVTRLDRWEPELNEAIPNDERDTTMPVAMATTLRKLLTGELLTLASRQQLIDWMEADKVAGPLLRSALPAGWFIADKSGAGERGSRGIIAALGPDGKPSRIVVIYTTGSQATMDERNRQIAEIGASLIKHWGPDYKDHDGDYKDHDIDYKDDDDKGPHHHHHH
# Key:
# Experiment in all cases: glycan array binding signal (z-score within array); higher = stronger binding
# Details in all cases: glycan notation: IUPAC condensed, linker removed
# [1] = target: Gal(b1-3)[Fuc(a1-4)]GlcNAc(b1-3)Gal(b1-4)[Fuc(a1-3)]GlcNAc
# Method in brief: (§1)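 Glycan array data were curated from 3228 arrays in the Consortium for Functional Glycomics database and kept only where the protein sequence was available. Glycan names were converted to IUPAC-condensed notation, and columns mapping to the same glycan were averaged. The binding signal is a within-array Z-score, averaged across arrays of the same protein sequence at different concentrations or buffers and across linkers. Negative Z-scores can be read as non-binding.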
# [2] = target: Gal(b1-3)[GlcNAc(b1-6)]GalNAc
# Method in brief: as §1
# [3] = target: Gal(b1-3)[Neu5Ac(a2-6)]GalNAc
# Method in brief: as §1
# [4] = target: Gal(b1-3)[Neu5Ac(a2-6)]GlcNAc(b1-6)Gal(b1-4)Glc
# Method in brief: as §1
# [5] = target: Gal(b1-3)[Neu5Ac(b2-6)]GalNAc
# Method in brief: as §1
# [6] = target: Gal(b1-4)GalNAc(a1-3)[Fuc(a1-2)]Gal(b1-4)GlcNAc
# Method in brief: as §1
# [7] = target: Gal(b1-4)GalNAc(b1-3)[Fuc(a1-2)]Gal(b1-4)GlcNAc
# Method in brief: as §1
# [8] = target: Gal(b1-4)Glc
# Method in brief: as §1
# [9] = target: Gal(b1-4)Glc6S
# Method in brief: as §1
# [10] = target: Gal(b1-4)GlcNAc
# Method in brief: as §1
# [11] = target: Gal(b1-4)GlcNAc(a1-6)Gal(b1-4)GlcNAc
# Method in brief: as §1
# [12] = target: Gal(b1-4)GlcNAc(b1-2)Man(a1-3)[Gal(b1-4)GlcNAc(b1-2)Man(a1-6)]Man(b1-4)GlcNAc(b1-4)GlcNAc
# Method in brief: as §1
# [13] = target: Gal(b1-4)GlcNAc(b1-3)Gal(b1-3)GlcNAc
# Method in brief: as §1
# [14] = target: Gal(b1-4)GlcNAc(b1-3)Gal(b1-4)Glc
# Method in brief: as §1
# [15] = target: Gal(b1-4)GlcNAc(b1-3)Gal(b1-4)GlcNAc
# Method in brief: as §1
# [16] = target: Gal(b1-4)GlcNAc(b1-3)Gal(b1-4)GlcNAc(b1-3)Gal(b1-4)GlcNAc
# Method in brief: as §1
# [17] = target: Gal(b1-4)GlcNAc(b1-3)Gal(b1-4)[Fuc(a1-3)]GlcNAc(b1-3)Gal(b1-4)[Fuc(a1-3)]GlcNAc
# Method in brief: as §1
# [18] = target: Gal(b1-4)GlcNAc(b1-3)GalNAc
# Method in brief: as §1
# [19] = target: Gal(b1-4)GlcNAc(b1-3)[Gal(b1-4)GlcNAc(b1-6)]Gal(b1-4)GlcNAc
# Method in brief: as §1
# [20] = target: Gal(b1-4)GlcNAc(b1-3)[GlcNAc(b1-6)]Gal(b1-4)GlcNAc
# Method in brief: as §1
# [21] = target: Gal(b1-4)GlcNAc(b1-6)Gal(b1-4)GlcNAc
# Method in brief: as §1
# [22] = target: Gal(b1-4)GlcNAc(b1-6)Gal(b1-4)GlcNAc(b1-6)GalNAc
# Method in brief: as §1
binder,measurement,setting,value
B1,glycan array binding signal (z-score),[1],-0.175
same,glycan array binding signal (z-score),[2],-0.25
same,glycan array binding signal (z-score),[3],-0.404
same,glycan array binding signal (z-score),[4],-0.208
same,glycan array binding signal (z-score),[5],-0.425
same,glycan array binding signal (z-score),[6],0.156
same,glycan array binding signal (z-score),[7],-0.401
same,glycan array binding signal (z-score),[8],-0.174
same,glycan array binding signal (z-score),[9],-0.055
same,glycan array binding signal (z-score),[10],-0.374
same,glycan array binding signal (z-score),[11],-0.301
same,glycan array binding signal (z-score),[12],-0.162
same,glycan array binding signal (z-score),[13],-0.238
same,glycan array binding signal (z-score),[14],-0.219
same,glycan array binding signal (z-score),[15],-0.31
same,glycan array binding signal (z-score),[16],-0.277
same,glycan array binding signal (z-score),[17],-0.405
same,glycan array binding signal (z-score),[18],-0.342
same,glycan array binding signal (z-score),[19],-0.358
same,glycan array binding signal (z-score),[20],-0.269
same,glycan array binding signal (z-score),[21],-0.329
same,glycan array binding signal (z-score),[22],-0.387
